Our source for the IC50 values is US20260137703A1, “2-AMINO-PYRIDO[2,3-D]PYRIMIDIN-7(8H)-ONE AND 7-AMINO-1-PYRIMIDO[4,5-D]PYRIMIDIN-2(1 H)-ONE DERIVATIVES AS EGFR INHIBITORS FOR THE TREATMENT OF CANCER” (Cancer Research Technology Limited, priority 2022, published 2026).

SMILES strings stand for the structures. Some results are limits rather than exact numbers.

This experiment addresses CtermHisTag-mEGFR Triple Mutant (R797S, L858R, T790M) (Homo sapiens, UniProt P00533, C797S/L858R/T790M). The experiment in a line: TR-FRET probe displacement, EGFR triple mutant. Conditions: 1.25 nM EGFR, 100 nM probe, 30 mins room temperature. (In TR-FRET formats the signal depends on donor and acceptor labels being close together.)
In general, IC50 refers to the concentration at which inhibition is half-maximal. A lower IC50 goes with greater potency. The molecule `C#Cc1cc(=O)n2c3nc(ncc13)Nc1ccc(N3CCN(C)CC3)c(c1)CC(=O)NCC2` [Example 197, 1^5-Ethynyl-3^4-(4-methylpiperazin-1-yl)-1^7,1^8-dihydro-2,6-diaza-1(2,8)-pyrido[2,3-d]pyrimidina-3(1,3)-benzenacyclooctaphane-1^7,5-dione] gave a concentration for half-maximal inhibition (IC50) of 100 to 1000 nM.

`C#Cc1cc(=O)n2c3nc(ncc13)Nc1ccc(N3CCN(C)CC3)c(c1)NCCCC2` [Example 198, 1^5-Ethynyl-3^4-(4-methylpiperazin-1-yl)-1^7, 1^8-dihydro-2,4-diaza-1(2,8)-pyrido[2,3-d]pyrimidina-3(1,3)-benzenacyclooctaphan-1^7-one] displayed a 50% inhibitory concentration (IC50) of 100 to 1000 nM.

`C#Cc1cc(=O)n2c3nc(ncc13)Nc1ccc(N3CCN(C)CC3)c(c1)CNCCC2` [Example 199, 1^5-Ethynyl-3^4-(4-methylpiperazin-1-yl)-1^7,1^8-dihydro-2,5-diaza-1(2,8)-pyrido[2,3-d]pyrimidina-3(1,3)-benzenacyclooctaphan-1^7-one] came in with an IC50 of 1000 to 50000 nM.

Regarding `C#Cc1cc(=O)n2c3nc(ncc13)Nc1ccc(N3CCN(C)CC3)c(c1)OCCCCC2` [Example 200, 1^5-Ethynyl-34-(4-methylpiperazin-1-yl)-1^7,1^8-dihydro-4-oxa-2-aza-1(2,8)-pyrido[2,3-d]pyrimidina-3(1,3)-benzenacyclononaphan-17-one], the concentration for half-maximal inhibition (IC50) is less than 20 nM.

Take `C#Cc1cc(=O)[nH]c2nc(Nc3ccc(N4CCN(C)CC4)c(CNC(=O)C=C)c3)ncc12` [Example 201]: the IC50 is less than 20 nM.

For the molecule `C#Cc1cc(=O)n(C2CCCC2)c2nc(Nc3ccccc3N3CCCC(CS(C)(=O)=O)C3)ncc12` (stereo not shown) [Example 202, 8-Cyclopentyl-5-ethynyl-2-({2-[3-(methanesulfonylmethyl)piperidin-1-yl]phenyl}amino)pyrido[2,3-d]pyrimidin-7-one], the IC50 is 1000 to 50000 nM.

`C#Cc1cc(=O)n(C2CCCC2)c2nc(Nc3cccc(N(C)[C@H]4C[C@@H](CS(C)(=O)=O)C4)c3)ncc12` [Example 203] had an IC50 of 100 to 1000 nM.

`C#Cc1cc(=O)n(C2CCCC2)c2nc(Nc3cccc(N(C)[C@H]4CC[C@@H](CS(C)(=O)=O)CC4)c3)ncc12` [Example 204] had an IC50 of 100 to 1000 nM.

`C#Cc1cc(=O)n(C2CCCC2)c2nc(Nc3cccc(N(C)[C@H]4C[C@H](CS(C)(=O)=O)C4)c3)ncc12` [Example 205] yielded an IC50 of 100 to 1000 nM.

Take `C#Cc1cc(=O)n(C2CCCC2)c2nc(Nc3cccc(N(C)[C@H]4CC[C@H](CS(C)(=O)=O)CC4)c3)ncc12` [Example 206]: the half-maximal inhibitory concentration (IC50) fell in the range of 100 to 1000 nM.

`C#Cc1cc(=O)n(C)c2nc(Nc3ccc(N4CCN(C)CC4)c(OCCC)c3)ncc12` [Example 207, 5-Ethynyl-8-methyl-2-((4-(4-methylpiperazin-1-yl)-3-propoxyphenyl)amino)pyrido[2,3-d]pyrimidin-7(8H)-one] displayed a half-inhibitory concentration (IC50) of less than 20 nM.

The molecule `C#Cc1cc(=O)n(C)c2nc(Nc3ccc(N4CCN(C)CC4)c(OC)c3)ncc12` [Example 208, 5-Ethynyl-2-((3-methoxy-4-(4-methylpiperazin-1-yl)phenyl)amino)-8-methylpyrido[2,3-d]pyrimidin-7(8H)-one] gave an IC50 of less than 20 nM.

As for `C#Cc1cc(=O)n(C)c2nc(Nc3ccc(N4CCN(C)CC4)c(OCCC4CCCC4)c3)ncc12` [Example 209, 2-((3-(2-Cyclopentylethoxy)-4-(4-methylpiperazin-1-yl)phenyl)amino)-5-ethynyl-8-methylpyrido[2,3-d]pyrimidin-7(8H)-one], the IC50 lay in the range of 20 to 100 nM.

Take `C#Cc1cc(=O)n(Cc2ccn(C)n2)c2nc(Nc3ccc(N4CCN(C)CC4)c(OCCC4CCCC4)c3)ncc12` [Example 210, 2-((3-(2-Cyclopentylethoxy)-4-(4-methylpiperazin-1-yl)phenyl)amino)-5-ethynyl-8-((1-methyl-1H-pyrazol-3-yl)methyl)pyrido[2,3-d]pyrimidin-7(8H)-one]: the 50% inhibitory concentration (IC50) lay within 20 to 100 nM.

Molecule `C#Cc1cc(=O)n(C)c2nc(Nc3ccc(N4CCN(C)CC4)c(OCC4CCCC4)c3)ncc12` [Example 211, 2-((3-(Cyclopentylmethoxy)-4-(4-methylpiperazin-1-yl)phenyl)amino)-5-ethynyl-8-methylpyrido[2,3-d]pyrimidin-7(8H)-one] yielded an IC50 of 20 to 100 nM.

Consider `C#Cc1cc(=O)n(C)c2nc(Nc3ccc(N4CCN(C)CC4)c(OCCCC4CCCC4)c3)ncc12` [Example 212, 2-((3-(3-Cyclopentylpropoxy)-4-(4-methylpiperazin-1-yl)phenyl)amino)-5-ethynyl-8-methylpyrido[2,3-d]pyrimidin-7(8H)-one], for which the IC50 is 20 to 100 nM.

The molecule `C#Cc1cc(=O)n(C)c2nc(Nc3ccc(N4CCN(C)CC4)c(OCCC4CCCCC4)c3)ncc12` [Example 213, 2-((3-(2-Cyclohexylethoxy)-4-(4-methylpiperazin-1-yl)phenyl)amino)-5-ethynyl-8-methylpyrido[2,3-d]pyrimidin-7(8H)-one] had a half-inhibitory concentration (IC50) of 20 to 100 nM.

Molecule `C#Cc1cc(=O)n(C)c2nc(Nc3ccc(N4CCN(C)CC4)c(OCCc4ccccc4)c3)ncc12` [Example 214, 5-Ethynyl-8-methyl-2-((4-(4-methylpiperazin-1-yl)-3-phenethoxyphenyl)amino)pyrido[2,3-d]pyrimidin-7(8H)-one] registered a concentration for half-maximal inhibition (IC50) of 20 to 100 nM.

Turning to `C#Cc1cc(=O)n(C)c2nc(Nc3ccc(N4CCN(C)CC4)c(OC4CCCC4)c3)ncc12` [Example 215, 2-((3-(Cyclopentyloxy)-4-(4-methylpiperazin-1-yl)phenyl)amino)-5-ethynyl-8-methylpyrido[2,3-d]pyrimidin-7(8H)-one], the IC50 was less than 20 nM.

As for `C#Cc1cc(=O)n(C)c2nc(Nc3ccc(N4CCN(C)CC4)c(OCCC(C)C)c3)ncc12` [Example 216, 5-Ethynyl-2-((3-(isopentyloxy)-4-(4-methylpiperazin-1-yl)phenyl)amino)-8-methylpyrido[2,3-d]pyrimidin-7(8H)-one], the IC50 is 20 to 100 nM.

`C#Cc1cc(=O)n(C)c2nc(Nc3ccc(N4CCN(C)CC4)c(NC(=O)CC4CCCC4)c3)ncc12` [Example 217, 2-Cyclopentyl-N-(5-((5-ethynyl-8-methyl-7-oxo-7,8-dihydropyrido[2,3-d]pyrimidin-2-yl)amino)-2-(4-methylpiperazin-1-yl)phenyl)acetamide] displayed an IC50 of 20 to 100 nM.

Consider `C#Cc1cc(=O)n(C)c2nc(Nc3ccc(N4CCN(C)CC4)c(S(=O)(=O)NCC4CCCC4)c3)ncc12` [Example 218], for which the IC50 lay in the range of 100 to 1000 nM.

`C#Cc1cc(=O)n(C)c2nc(Nc3ccc(N4CCN(C)CC4)c(NC(=O)NC4CCCC4)c3)ncc12` [Example 219, 3-Cyclopentyl-1-[5-({5-ethynyl-8-methyl-7-oxopyrido[2,3-d]pyrimidin-2-yl}amino)-2-(4-methylpiperazin-1-yl)phenyl]urea] had an IC50 of 20 to 100 nM.

Molecule `C#Cc1cc(=O)n(C)c2nc(Nc3ccc(N4CCN(C)CC4)c(OCCc4ccnn4C)c3)ncc12` [Example 220, 5-Ethynyl-8-methyl-2-((3-(2-(1-methyl-1H-pyrazol-5-yl)ethoxy)-4-(4-methylpiperazin-1-yl)phenyl)amino)pyrido[2,3-d]pyrimidin-7(8H)-one] returned an IC50 of less than 20 nM.

With `C#Cc1cc(=O)n(C)c2nc(Nc3ccc(N4CCN(C)CC4)c(C(=O)NCC4CCCC4)c3)ncc12` [Example 221, N-(Cyclopentylmethyl)-5-({5-ethynyl-8-methyl-7-oxopyrido[2,3-d]pyrimidin-2-yl}amino)-2-(4-methylpiperazin-1-yl)benzamide], the IC50 fell in the range of 20 to 100 nM.
